# Among all 310,000 compounds or so, about 14,000 (4.5%) showed an effect of 50% or more. The effect is printed as a negative number. Some of the results follow.
# Target: human ether-à-go-go-related gene (hERG) potassium channel (human, UniProt Q12809)
# Assay: primary screen, population patch clamp on CHO cells stably expressing hERG
# 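Further: peak tail current of the secondary pulse compared with the same well before compound.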
# Sequence of human ether-à-go-go-related gene (hERG) potassium channel (Q12809 whole entry, looked up): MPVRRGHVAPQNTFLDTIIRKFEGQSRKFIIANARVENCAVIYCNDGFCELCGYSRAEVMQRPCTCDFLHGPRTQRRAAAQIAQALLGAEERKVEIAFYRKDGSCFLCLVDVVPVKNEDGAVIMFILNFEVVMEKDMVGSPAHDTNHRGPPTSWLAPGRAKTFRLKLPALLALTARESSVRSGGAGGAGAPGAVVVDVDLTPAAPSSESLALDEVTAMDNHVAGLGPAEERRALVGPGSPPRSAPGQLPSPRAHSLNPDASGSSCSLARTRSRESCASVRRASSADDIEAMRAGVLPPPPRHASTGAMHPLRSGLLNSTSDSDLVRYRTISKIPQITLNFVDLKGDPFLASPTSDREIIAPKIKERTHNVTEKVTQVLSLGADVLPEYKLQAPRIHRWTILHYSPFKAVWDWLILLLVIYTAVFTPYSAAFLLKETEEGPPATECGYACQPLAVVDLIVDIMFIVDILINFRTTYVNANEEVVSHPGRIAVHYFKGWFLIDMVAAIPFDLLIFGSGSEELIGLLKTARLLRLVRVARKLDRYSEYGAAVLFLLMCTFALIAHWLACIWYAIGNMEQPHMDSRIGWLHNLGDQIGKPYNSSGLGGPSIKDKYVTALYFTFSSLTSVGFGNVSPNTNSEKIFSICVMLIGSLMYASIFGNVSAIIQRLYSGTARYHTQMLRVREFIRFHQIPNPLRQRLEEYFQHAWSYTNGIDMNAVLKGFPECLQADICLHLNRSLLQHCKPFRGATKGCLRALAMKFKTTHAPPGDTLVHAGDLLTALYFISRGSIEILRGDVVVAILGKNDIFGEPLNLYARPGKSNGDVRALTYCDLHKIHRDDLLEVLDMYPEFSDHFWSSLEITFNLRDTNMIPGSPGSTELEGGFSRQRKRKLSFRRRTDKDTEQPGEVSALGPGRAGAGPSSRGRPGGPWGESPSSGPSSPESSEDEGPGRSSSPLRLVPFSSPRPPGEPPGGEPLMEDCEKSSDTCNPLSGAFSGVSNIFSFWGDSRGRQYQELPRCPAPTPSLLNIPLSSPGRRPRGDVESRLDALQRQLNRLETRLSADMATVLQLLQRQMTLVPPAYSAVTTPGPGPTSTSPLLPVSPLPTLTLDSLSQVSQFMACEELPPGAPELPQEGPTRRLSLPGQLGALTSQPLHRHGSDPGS
row,SMILES,"hERG current change (%, negative = inhibition) at 10uM [%]"
1,O=C(c1ccccc1)n1c(=S)nc2ccccn21,8.23
2,COc1ccc(N2CCN(C(=O)c3ccc(S(=O)(=O)N4CCCC4)cc3)CC2)cc1,19.3
3,CN(C)S(=O)(=O)N1CCN(C(=O)c2ccccc2Cl)CC1,0.739
4,O=C(Cn1c(=O)oc2cc(S(=O)(=O)N3CCCCC3)ccc21)N1CCc2ccccc2C1,1.52
5,Cn1c(Cc2cccs2)nnc1SCC(=O)Nc1ccc(F)cc1F,-15.5
6,COc1ccccc1NCc1nnc(SCC(=O)N/N=C/c2ccco2)n1-c1ccc(Cl)cc1Cl,-0.294
7,CC(C)(C)N/N=C1\CC(c2ccccc2)Oc2ccccc21.Cl (stereo not shown),5.46
8,CSc1ccc(/C=C/C(=O)OCC(=O)N(C)CCC#N)cc1,3.61
9,CCS(=O)(=O)c1nc2ccccc2n1CC(=O)N1CCCCC1,11.2
10,O=C(NCc1ccccc1)NS(=O)(=O)c1ccccc1Cl,-4.3
11,O=C(c1ccsc1)N1CCCC(Nc2cccc(F)c2)C1 (stereo not shown),12.2
12,CCCOC(=O)CCn1c(=S)oc2ccccc21,-7.36
13,O=C(C[n+]1ccccc1)Nc1ccccc1[N+](=O)[O-].[Cl-],21.2
14,COc1ccc(CN2C3CCCC2CC(NC(=O)Nc2ccccc2)C3)cc1 (stereo not shown),-74.1
15,CC(NC(=O)Cn1cnnn1)c1cccc(C(F)(F)F)c1 (stereo not shown),21.9
16,O=C1CCC(=O)N1c1ccc(NCc2ccccc2Cl)c([N+](=O)[O-])c1,-2.79
17,Cc1cc(C)c2cc(CN(CC3CCCO3)C(=S)NCc3ccco3)c(=O)[nH]c2c1 (stereo not shown),0.203
18,CC(C(=O)NC1C(=O)N2C(C(=O)O)=C(CSc3nnnn3C)CSC12)n1cc(Br)cn1 (stereo not shown),25.1
19,Cc1c(/C=N/n2cnnc2)c2ccccc2n1C,1.25
20,O=[N+]([O-])c1cc(-n2cccc2)ccc1N1CCOCC1,-37.2
21,COCCCNC(=O)Cn1nnc(-c2ccc(NC(=O)c3cccnc3)cc2)n1,-1.66
22,CN(C(=O)CSc1nc(N)c2c3c(sc2n1)CSC(C)(C)C3)c1ccccc1,-7.23

row,SMILES,"hERG current change (%, negative = inhibition) at 10uM [%]"
1,COc1ccc(-n2c3c(cc(C(=O)NNc4ccccc4)c2=O)C(=O)CC(C)(C)C3)cc1,-26.3
2,C=C(C)CN1C(=O)C(=O)N(CC(=C)C)C1=O,20.2
3,COc1ccc(Oc2coc3cc(OC(=O)c4cccs4)ccc3c2=O)cc1,16.1
4,O=C(Nc1ccccc1C(=O)NCc1ccco1)NC1CCCCC1,-14.5
5,CN(CCOC(=O)c1ccc2c(c1)OCCO2)C(C)(C)C.Cl,12.4
6,Oc1ccccc1C1=NCCNC(C(F)(F)F)=C1,15.5
7,COc1ccc(-c2cn(CCO)c(CCN)n2)cc1,4.1
8,O=Cc1cn(CCOc2ccccc2F)c2ccccc12,4.35
9,Cc1nn(C)c(C)c1NC(=O)C12CC3CC(CC(C3)C1)C2,2.86
10,O=C(O)/C(=C\c1ccco1)NC(=O)c1cccc2ccccc12,-3.21
11,O=S1(=O)N=C(Nc2ccc(N3CCOCC3)cc2)c2ccccc21,-25.5
12,Cc1cccc(C)c1OCC(=O)Nc1ccncc1,1.15
13,COCCNC(=O)C(c1ccc(Cl)cc1)N(C(=O)CCC(=O)Nc1ccccn1)C1CCCC1 (stereo not shown),2.25
14,Cc1cc(C)cc(NS(=O)(=O)c2ccc(-c3cnc(C4CC4)o3)cc2)c1,14.1
15,CC(=O)N1CCN(C2c3cccc4cccc(c34)C2NS(=O)(=O)c2ccccc2)CC1 (stereo not shown),-37.7
16,COc1ccc(CNn2c(-c3ccccc3F)nc3ccccc3c2=O)cc1OC,22.5
17,O=[N+]([O-])c1ccc(C(O)C[n+]2ccccc2)cc1.[I-] (stereo not shown),12
18,CC(NS(C)(=O)=O)C(c1cccs1)N1CCN(c2ccc(F)cc2)CC1 (stereo not shown),-11.4
19,O=c1nccc(N/N=C/c2ccccc2)[nH]1,12.2
20,COc1ccccc1CNC(=O)C(C)n1nc(C)n2c(cc3occc32)c1=O (stereo not shown),-7.85
21,Cc1ccccc1C(=O)N(C)c1ccccc1C(=O)NCc1ccccc1,-21
22,CCn1c(C)c(C)c2cc(C(=O)NCCN3CCOCC3)ccc21,-9.62

row,SMILES,"hERG current change (%, negative = inhibition) at 10uM [%]"
1,Cc1ccc(N(CC(=O)NCc2ccncc2)S(C)(=O)=O)cc1,10.6
2,CCOc1ccc(CCNc2cc(C)nc3ncnn23)cc1OCC,-5
3,CCOC(=O)C1CCN(C(=O)c2sc3nc(C)nc(N4CCC(C)CC4)c3c2C)CC1,-52.7
4,Cc1cc(/C=N/NC(=O)c2cccc(F)c2)c(C)n1-c1ccccc1,0.174
5,COc1cc(O)ccc1C(=O)CCc1ccc(O)cc1,-45.4
6,CC(=O)c1ccc(O)c(CSC2=NCCS2)c1,19.8
7,O=C(CSc1ncn[nH]1)N1N=C2/C(=C/c3ccccc3)CCCC2C1c1ccccc1 (stereo not shown),8.08
8,CCC(=O)NC(=S)NNC(=O)c1ccc(OC)cc1,10.2
9,CCOC(=O)N1CCN(C(=O)c2cc3ccc(OC)cc3[nH]2)CC1,13.2
10,O=C(/C=C/c1ccccc1)NC(=S)N1CCSCC1,6.97
11,Cc1ccc(CSCC(=O)N(C)CC(=O)Nc2c(Cl)cccc2Cl)cc1,-9.07
12,COc1cc(CN2CCNCC2)cc(OC)c1OC.Cl,5.64
13,Cc1cc(=O)n(CC=C(Cl)Cl)c2ccccc12,-15
14,Cc1c(C(=O)Oc2ccc(F)cc2)sc2ncn(Cc3cccc(F)c3)c(=O)c12,12.9
15,Cn1cccc1C(=O)NC(=O)COC(=O)CNC(=O)c1ccc(Cl)cc1Cl,9.15
16,C#CCOCCOCCOCCNc1nc(N2CCN(C(=O)[C@H](CCC(=O)O)n3cc(C(N)[C@H](C)CC)nn3)CC2)nc(N2CCN(C(=O)[C@H](Cc3cc4ccccc4[nH]3)n3cc(C(N)[C@H](C)CC)nn3)CC2)n1.Cl (stereo partly shown),8.92
17,Cc1ccc(-c2cc(C)nc3ncnn23)cc1,11.2
18,Cc1cccc(N2CCN(C(=O)c3cc4ccccc4oc3=O)CC2)c1C,-40.8
19,COc1ccc(CCNC(=O)CS(=O)(=O)Cc2nc(-c3ccccc3Cl)oc2C)cc1OC,-3.23
20,CC(=O)Nc1cc(-c2nn(C)c(=O)c3ccccc23)ccc1N1CCCCC1,24.8
21,COc1cc(N=Nc2c(O)c3ccccc3[nH]c2=O)c(OC)cc1N=Nc1ccccc1,20.5
22,Cc1ccc(CN2CCc3c(OCC(=O)Nc4cccc(C)c4C)cccc3C2=O)cc1,-4.51

row,SMILES,"hERG current change (%, negative = inhibition) at 10uM [%]"
1,O=C(CN1CCOCC1)N/N=C/c1ccco1,17.1
2,CC(Oc1cccc(Cl)c1)C(=O)Nc1nc(-c2ccccn2)cs1 (stereo not shown),4.19
3,CC1(C)CC2CC(C)(CN2CC(O)COc2ccccc2)C1.O=C(O)C(=O)O (stereo not shown),-41.5
4,O=C(NNC(=O)c1cc(Cl)ccc1O)c1cccc(S(=O)(=O)N2CCOCC2)c1,17.5
5,O=C(Nc1c2c(nn1-c1ccc([N+](=O)[O-])cc1)CS(=O)(=O)C2)c1ccccc1F,-5.64
6,Cc1cc(=O)n(C)c(=O)n1CCCCCOc1cccc([N+](=O)[O-])c1,-57.9
7,CCN1C(=S)SC(=O)C1=C1C=C(C)N(Cc2ccco2)C(C)=C1,-12.4
8,CCc1nn(CC(=O)NCCCN2CCCC2=O)c(=O)c2cc3sccc3n12,-12.3
9,CCCCOc1ccc(/C=C/C(=O)OCC(=O)N2CC(=O)Nc3ccccc32)cc1OCC,21.2
10,COc1ccc(OC)c(CC(=O)Nc2cc(S(=O)(=O)N3CCCCC3)ccc2C)c1,-18.5
11,C=CCNc1ccc(N2C(=O)CCCC2=O)cc1[N+](=O)[O-],13.7
12,CCCCC(CC)CNC(=O)C1C2C=CC(C2)C1C(=O)O (stereo not shown),-4.63
13,Cc1oc2ccc(OCc3ccccc3Cl)cc2c1C(=O)O,0.0277
14,CC(C)(C)NC(=O)COC(=O)c1cc(S(=O)(=O)N2CCCCC2)ccc1N1CCOCC1,-6.23
15,O=[N+]([O-])c1ccccc1OCCOCCOc1cccc2cccnc12,-28.4
16,Nc1nccc(/C=C/c2c(F)cccc2Cl)n1,-2.42
17,C/C(=N\Nc1ccc(Cl)cc1)c1c(O)cc(C)oc1=O,15.3
18,Cc1nn(Cc2ccc(Cl)cc2)c(C)c1NC(=O)C(c1ccccc1)c1ccccc1,-44.5
19,Cc1ccc(-n2c(N)c(C(=O)N3CCOCC3)sc2=S)cc1,-25
20,CCn1c(O)c(/C=C2\C=Nc3ccccc32)sc1=Nc1ccccc1,14.5
21,O=C(Nc1ccccc1)c1ccc(S(=O)(=O)N2CCCCC2)cc1,-35.3
22,C/C(=N\NC(=O)c1cccs1)c1ccc2ccccc2c1,16.6
